Source: publication PMC9156729
Like-named read-outs stand apart in the source and are kept apart here. These are yes or no findings as the source states them, for the method shown. Binding seen in cells or lysates may run through a third protein. Some entries that bind do so weakly or less than the wild type. For part of these data: Sequences can lack the tags named with a protein. Values belong to the molecule of their own block, whether it stands above or below them.

By UniProt entry, the sequences of proteins in these tests, tags left out. Where a name states a change or a piece, a line headed by the entry shows the natural chain unless it says otherwise.
UniProt O43791: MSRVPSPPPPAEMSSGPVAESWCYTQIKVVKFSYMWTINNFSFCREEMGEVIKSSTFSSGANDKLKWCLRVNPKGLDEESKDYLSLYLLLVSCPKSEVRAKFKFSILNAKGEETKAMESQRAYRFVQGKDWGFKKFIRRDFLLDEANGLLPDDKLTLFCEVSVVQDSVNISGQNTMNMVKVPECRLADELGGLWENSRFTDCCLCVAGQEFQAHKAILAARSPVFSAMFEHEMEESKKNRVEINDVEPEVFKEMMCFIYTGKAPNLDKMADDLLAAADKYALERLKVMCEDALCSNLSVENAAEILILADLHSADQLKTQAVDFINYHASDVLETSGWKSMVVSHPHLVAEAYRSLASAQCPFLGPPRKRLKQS
UniProt P48730: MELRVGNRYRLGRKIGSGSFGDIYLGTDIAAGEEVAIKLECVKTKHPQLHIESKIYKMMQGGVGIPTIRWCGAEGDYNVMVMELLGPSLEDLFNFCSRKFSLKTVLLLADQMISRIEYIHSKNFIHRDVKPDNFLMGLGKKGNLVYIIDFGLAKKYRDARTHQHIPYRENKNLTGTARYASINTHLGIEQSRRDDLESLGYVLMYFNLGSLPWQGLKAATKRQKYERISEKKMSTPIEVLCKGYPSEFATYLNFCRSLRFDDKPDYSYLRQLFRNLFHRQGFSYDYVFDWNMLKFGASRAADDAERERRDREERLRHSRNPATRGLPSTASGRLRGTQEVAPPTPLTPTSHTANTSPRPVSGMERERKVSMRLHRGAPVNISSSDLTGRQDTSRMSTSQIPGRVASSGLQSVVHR
UniProt Q9UKT5: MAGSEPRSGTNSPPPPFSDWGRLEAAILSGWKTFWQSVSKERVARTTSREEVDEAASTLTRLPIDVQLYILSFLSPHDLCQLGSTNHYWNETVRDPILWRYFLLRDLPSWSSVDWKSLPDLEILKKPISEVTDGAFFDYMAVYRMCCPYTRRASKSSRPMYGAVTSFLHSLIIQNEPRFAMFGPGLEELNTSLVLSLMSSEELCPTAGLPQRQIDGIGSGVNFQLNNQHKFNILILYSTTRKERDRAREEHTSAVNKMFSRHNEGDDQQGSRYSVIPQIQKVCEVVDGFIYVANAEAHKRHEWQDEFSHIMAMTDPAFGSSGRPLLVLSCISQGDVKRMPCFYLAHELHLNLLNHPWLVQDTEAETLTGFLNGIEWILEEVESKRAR
UniProt Q13309: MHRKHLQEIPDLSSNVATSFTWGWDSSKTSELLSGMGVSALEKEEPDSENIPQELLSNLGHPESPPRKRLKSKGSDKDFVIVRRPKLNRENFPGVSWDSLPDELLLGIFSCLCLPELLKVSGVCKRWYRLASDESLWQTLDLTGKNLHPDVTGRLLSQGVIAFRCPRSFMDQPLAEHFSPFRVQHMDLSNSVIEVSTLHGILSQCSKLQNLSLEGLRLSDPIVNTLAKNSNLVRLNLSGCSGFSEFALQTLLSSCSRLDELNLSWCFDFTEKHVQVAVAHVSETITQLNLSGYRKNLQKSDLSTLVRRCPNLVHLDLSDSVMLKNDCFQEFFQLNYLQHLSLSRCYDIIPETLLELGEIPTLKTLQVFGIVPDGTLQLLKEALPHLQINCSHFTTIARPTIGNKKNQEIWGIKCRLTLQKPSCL
UniProt P25098: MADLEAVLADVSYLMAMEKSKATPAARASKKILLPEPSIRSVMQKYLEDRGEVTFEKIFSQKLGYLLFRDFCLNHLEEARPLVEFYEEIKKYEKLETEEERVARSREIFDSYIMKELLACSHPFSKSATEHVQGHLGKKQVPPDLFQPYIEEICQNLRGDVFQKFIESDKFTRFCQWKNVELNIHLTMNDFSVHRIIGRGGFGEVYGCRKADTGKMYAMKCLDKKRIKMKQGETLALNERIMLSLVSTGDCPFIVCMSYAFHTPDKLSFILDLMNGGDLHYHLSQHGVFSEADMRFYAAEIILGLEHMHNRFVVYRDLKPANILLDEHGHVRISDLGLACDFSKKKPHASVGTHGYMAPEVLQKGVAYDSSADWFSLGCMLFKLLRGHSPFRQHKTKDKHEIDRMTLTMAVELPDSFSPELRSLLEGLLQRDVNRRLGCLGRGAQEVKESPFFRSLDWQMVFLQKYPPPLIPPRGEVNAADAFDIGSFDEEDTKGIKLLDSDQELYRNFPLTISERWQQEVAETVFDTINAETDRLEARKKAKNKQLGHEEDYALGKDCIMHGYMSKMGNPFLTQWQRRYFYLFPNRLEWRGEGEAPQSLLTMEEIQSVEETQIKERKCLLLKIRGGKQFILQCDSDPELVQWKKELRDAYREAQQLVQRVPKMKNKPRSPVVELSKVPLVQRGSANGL

Assays:
FLAG-SPOP S222A = FLAG-SPOP S222A (UniProt O43791); test: co-IP; SPOP dimerisation: HEK293 cells transfected with the indicated SPOP plasmids, cultured in glutamine-containing or glutamine-free media (for the S222 mutants after siRNA to the SPOP 3′-UTR, glutamine-free medium 12 h); FLAG-agarose beads; immunoblot
[1] = target: Speckle-type POZ protein (SPOP), endogenous (human (endogenous in SK-BR-3)) (UniProt O43791); test: co-IP; endogenous proteins; SK-BR-3 cell lysate precipitated with anti-SPOP antibody, associated protein detected by immunoblot; glutamine deprivation also tested (Supplementary Fig. 6h, i)
HA-ASCT2, wild type = target: T1, HA-ASCT2, wild type (UniProt Q15758); test: co-IP; HEK293 cells transfected with plasmids; IP lysis buffer (50 mM Tris-HCl pH 8.0, 120 mM NaCl, 0.5% NP40, 1 mM EDTA); HA antibody overnight at 4 °C; immunoblot
T1 sequence: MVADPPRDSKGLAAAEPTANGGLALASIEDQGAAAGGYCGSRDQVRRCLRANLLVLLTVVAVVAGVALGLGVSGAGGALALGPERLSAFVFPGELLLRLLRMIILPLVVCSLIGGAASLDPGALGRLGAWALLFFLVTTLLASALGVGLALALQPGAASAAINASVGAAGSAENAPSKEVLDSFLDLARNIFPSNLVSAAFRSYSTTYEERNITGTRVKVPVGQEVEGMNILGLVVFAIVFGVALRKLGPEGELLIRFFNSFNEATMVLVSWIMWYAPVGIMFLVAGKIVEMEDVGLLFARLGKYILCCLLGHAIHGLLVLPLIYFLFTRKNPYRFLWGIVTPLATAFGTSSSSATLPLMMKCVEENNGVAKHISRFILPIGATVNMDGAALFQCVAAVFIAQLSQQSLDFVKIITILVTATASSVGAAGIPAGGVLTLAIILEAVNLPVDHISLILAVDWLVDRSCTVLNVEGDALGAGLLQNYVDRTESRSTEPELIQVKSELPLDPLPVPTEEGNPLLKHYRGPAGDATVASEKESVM

FLAG-SPOP S222D = FLAG-SPOP S222D (UniProt O43791); test: co-IP; SPOP dimerisation: HEK293 cells transfected with the indicated SPOP plasmids, cultured in glutamine-containing or glutamine-free media (for the S222 mutants after siRNA to the SPOP 3′-UTR, glutamine-free medium 12 h); FLAG-agarose beads; immunoblot
[2] = target: Speckle-type POZ protein (SPOP), endogenous (human (endogenous in SK-BR-3)) (UniProt O43791); test: co-IP; endogenous proteins; SK-BR-3 cell lysate precipitated with anti-SPOP antibody, associated protein detected by immunoblot; glutamine deprivation also tested (Supplementary Fig. 6h, i); remark: listed apart in the source
[3] = target: CK1δ, endogenous (human (endogenous in SUM159)) (UniProt P48730); test: co-IP; endogenous proteins; SUM159 cell lysate precipitated with anti-CK1δ antibody, associated ASCT2 detected by immunoblot
FLAG-SPOP, wild type = FLAG-SPOP, wild type (UniProt O43791); test: co-IP; HEK293 cells transfected with plasmids; IP lysis buffer (50 mM Tris-HCl pH 8.0, 120 mM NaCl, 0.5% NP40, 1 mM EDTA); FLAG-agarose beads overnight at 4 °C; immunoblot
FBXL7 = target: T2, FBXL7 (UniProt Q9UJT9); test: pull-down; Supplementary Fig. 2c, legend not shown; nine F-box proteins tested for pulling down ASCT2
T2 sequence: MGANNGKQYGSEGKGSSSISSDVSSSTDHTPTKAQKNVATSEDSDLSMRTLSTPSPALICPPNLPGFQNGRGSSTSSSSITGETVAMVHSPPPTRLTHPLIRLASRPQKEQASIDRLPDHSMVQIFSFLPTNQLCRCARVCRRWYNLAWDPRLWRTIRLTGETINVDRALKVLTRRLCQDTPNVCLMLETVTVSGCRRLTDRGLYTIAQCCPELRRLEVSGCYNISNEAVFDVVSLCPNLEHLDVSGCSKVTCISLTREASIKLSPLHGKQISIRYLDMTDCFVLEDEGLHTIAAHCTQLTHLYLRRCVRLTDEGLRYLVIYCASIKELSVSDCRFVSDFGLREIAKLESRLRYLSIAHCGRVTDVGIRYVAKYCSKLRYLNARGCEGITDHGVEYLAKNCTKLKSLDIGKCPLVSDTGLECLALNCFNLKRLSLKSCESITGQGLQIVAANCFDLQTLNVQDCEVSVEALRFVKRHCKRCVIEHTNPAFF

FBXO4 = FBXO4 (UniProt Q9UKT5); test: as above
SKP2 = SKP2 (UniProt Q13309); test: as above

Molecule: FLAG-SPOP S222A (from UniProt O43791 1-374)
binding (FLAG-SPOP S222A): binds

Molecule: FLAG-SPOP S222D (from UniProt O43791 1-374)
binding (FLAG-SPOP S222D): binds

B1: alanine-serine-cysteine transporter 2 (ASCT2; SLC1A5), endogenous (protein, UniProt Q15758 1-541)
chain: MVADPPRDSKGLAAAEPTANGGLALASIEDQGAAAGGYCGSRDQVRRCLRANLLVLLTVVAVVAGVALGLGVSGAGGALALGPERLSAFVFPGELLLRLLRMIILPLVVCSLIGGAASLDPGALGRLGAWALLFFLVTTLLASALGVGLALALQPGAASAAINASVGAAGSAENAPSKEVLDSFLDLARNIFPSNLVSAAFRSYSTTYEERNITGTRVKVPVGQEVEGMNILGLVVFAIVFGVALRKLGPEGELLIRFFNSFNEATMVLVSWIMWYAPVGIMFLVAGKIVEMEDVGLLFARLGKYILCCLLGHAIHGLLVLPLIYFLFTRKNPYRFLWGIVTPLATAFGTSSSSATLPLMMKCVEENNGVAKHISRFILPIGATVNMDGAALFQCVAAVFIAQLSQQSLDFVKIITILVTATASSVGAAGIPAGGVLTLAIILEAVNLPVDHISLILAVDWLVDRSCTVLNVEGDALGAGLLQNYVDRTESRSTEPELIQVKSELPLDPLPVPTEEGNPLLKHYRGPAGDATVASEKESVM
binding [2]: binds
binding [3]: binds

B2: HA-ASCT2-3A (protein, UniProt Q15758 1-541)
chain: MVADPPRDSKGLAAAEPTANGGLALASIEDQGAAAGGYCGSRDQVRRCLRANLLVLLTVVAVVAGVALGLGVSGAGGALALGPERLSAFVFPGELLLRLLRMIILPLVVCSLIGGAASLDPGALGRLGAWALLFFLVTTLLASALGVGLALALQPGAASAAINASVGAAGSAENAPSKEVLDSFLDLARNIFPSNLVSAAFRSYSTTYEERNITGTRVKVPVGQEVEGMNILGLVVFAIVFGVALRKLGPEGELLIRFFNSFNEATMVLVSWIMWYAPVGIMFLVAGKIVEMEDVGLLFARLGKYILCCLLGHAIHGLLVLPLIYFLFTRKNPYRFLWGIVTPLATAFGTAAASATLPLMMKCVEENNGVAKHISRFILPIGATVNMDGAALFQCVAAVFIAQLSQQSLDFVKIITILVTATASSVGAAGIPAGGVLTLAIILEAVNLPVDHISLILAVDWLVDRSCTVLNVEGDALGAGLLQNYVDRTESRSTEPELIQVKSELPLDPLPVPTEEGNPLLKHYRGPAGDATVASEKESVM
binding (FLAG-SPOP, wild type): binds weakly

B5: HA-ASCT2ΔGTSSS (protein, UniProt Q15758)
chain: MVADPPRDSKGLAAAEPTANGGLALASIEDQGAAAGGYCGSRDQVRRCLRANLLVLLTVVAVVAGVALGLGVSGAGGALALGPERLSAFVFPGELLLRLLRMIILPLVVCSLIGGAASLDPGALGRLGAWALLFFLVTTLLASALGVGLALALQPGAASAAINASVGAAGSAENAPSKEVLDSFLDLARNIFPSNLVSAAFRSYSTTYEERNITGTRVKVPVGQEVEGMNILGLVVFAIVFGVALRKLGPEGELLIRFFNSFNEATMVLVSWIMWYAPVGIMFLVAGKIVEMEDVGLLFARLGKYILCCLLGHAIHGLLVLPLIYFLFTRKNPYRFLWGIVTPLATAFSATLPLMMKCVEENNGVAKHISRFILPIGATVNMDGAALFQCVAAVFIAQLSQQSLDFVKIITILVTATASSVGAAGIPAGGVLTLAIILEAVNLPVDHISLILAVDWLVDRSCTVLNVEGDALGAGLLQNYVDRTESRSTEPELIQVKSELPLDPLPVPTEEGNPLLKHYRGPAGDATVASEKESVM
binding (FLAG-SPOP, wild type): no binding

Second part, the molecule after the results:

binding [1]: binds
Molecule: GRK2 (G protein-coupled receptor kinase), endogenous (from UniProt P25098 1-689) (enzyme)

binding (HA-ASCT2, wild type): binds
Molecule: FLAG-SPOP, wild type (from UniProt O43791 1-374)

binding (FBXL7): binds
binding (FBXO4): binds
binding (SKP2): binds
B3: ASCT2 as used in the pull-down with F-box proteins (Supplementary Fig. 2c) (protein, UniProt Q15758 1-541)
chain: MVADPPRDSKGLAAAEPTANGGLALASIEDQGAAAGGYCGSRDQVRRCLRANLLVLLTVVAVVAGVALGLGVSGAGGALALGPERLSAFVFPGELLLRLLRMIILPLVVCSLIGGAASLDPGALGRLGAWALLFFLVTTLLASALGVGLALALQPGAASAAINASVGAAGSAENAPSKEVLDSFLDLARNIFPSNLVSAAFRSYSTTYEERNITGTRVKVPVGQEVEGMNILGLVVFAIVFGVALRKLGPEGELLIRFFNSFNEATMVLVSWIMWYAPVGIMFLVAGKIVEMEDVGLLFARLGKYILCCLLGHAIHGLLVLPLIYFLFTRKNPYRFLWGIVTPLATAFGTSSSSATLPLMMKCVEENNGVAKHISRFILPIGATVNMDGAALFQCVAAVFIAQLSQQSLDFVKIITILVTATASSVGAAGIPAGGVLTLAIILEAVNLPVDHISLILAVDWLVDRSCTVLNVEGDALGAGLLQNYVDRTESRSTEPELIQVKSELPLDPLPVPTEEGNPLLKHYRGPAGDATVASEKESVM

binding (FLAG-SPOP, wild type): binds
B4: HA-ASCT2-3D (protein, UniProt Q15758 1-541)
chain: MVADPPRDSKGLAAAEPTANGGLALASIEDQGAAAGGYCGSRDQVRRCLRANLLVLLTVVAVVAGVALGLGVSGAGGALALGPERLSAFVFPGELLLRLLRMIILPLVVCSLIGGAASLDPGALGRLGAWALLFFLVTTLLASALGVGLALALQPGAASAAINASVGAAGSAENAPSKEVLDSFLDLARNIFPSNLVSAAFRSYSTTYEERNITGTRVKVPVGQEVEGMNILGLVVFAIVFGVALRKLGPEGELLIRFFNSFNEATMVLVSWIMWYAPVGIMFLVAGKIVEMEDVGLLFARLGKYILCCLLGHAIHGLLVLPLIYFLFTRKNPYRFLWGIVTPLATAFGTDDDSATLPLMMKCVEENNGVAKHISRFILPIGATVNMDGAALFQCVAAVFIAQLSQQSLDFVKIITILVTATASSVGAAGIPAGGVLTLAIILEAVNLPVDHISLILAVDWLVDRSCTVLNVEGDALGAGLLQNYVDRTESRSTEPELIQVKSELPLDPLPVPTEEGNPLLKHYRGPAGDATVASEKESVM
